Consider 28 compounds from PubChem BioAssay AID1963576 (National Center for Advancing Translational Sciences (NCATS), 2024).

Among all 46,000 compounds or so, about 60 (0.1%) were called active. Roughly 3% stayed inconclusive and do not appear here. Calls follow the shape of the dose curve; as a rule, active = well fitted inhibition curve with a large enough effect; inconclusive = small, poorly fitted or top-dose-only effect; inactive = no such curve, though single readings can be large or run the other way. The list shows a part of the results.

A short description of this assay: Primary qHTS assay for Inhibitors of ovarian cancer metastasis using an organotypic tumor microenvironment (TME) model. Also: nearly all actives have a fitted effect of over 65% in size.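 As to activity change, negative = inhibition: plate controls were DMSO wells for no effect and tomatine positive control wells for full effect.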 To be noted: SKOV3ip1-GFP adhesion/invasion on 3D omental model, fluorescence; series mostly up to 45.8 µM; activity change, negative = inhibition: at the top concentration. The essentials:
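qHTS, 4-pt dose (0.36-46 umol/L); SKOV3ip1-GFP, 1,200 cells/well, no FBS; primary omental fibroblast/mesothelial co-culture 48 h pre-grown; 2 h RT + 16 h 37 C; PBS wash, 4% PFA; GFP count 488/509 nm.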
(In general: qHTS replaces the single test concentration by a dilution series.)
On to `Nc1ccn([C@@H]2O[C@H](CO)[C@@H](O)[C@H]2O)c(=O)n1`, for which the “activity change, negative = inhibition” value was inactive: -3.37%.

Regarding `Cc1cc(C)c(NC(=O)CSc2nc3c([nH]c4ccccc43)c(=O)n2C)c(C)c1`, the “activity change, negative = inhibition” value was inactive: 43.3%.

With `CCCOc1cccc(C2c3c(oc4ccc(F)cc4c3=O)C(=O)N2c2nc(C)c(C(C)=O)s2)c1` (stereo not drawn), the “activity change, negative = inhibition” value was inactive: 1.1%.

Consider `CCc1ccccc1N(CC)C(=O)C1CCN(c2ncnc3c2nc2n3CCCCC2)CC1`, for which the “activity change, negative = inhibition” value is inactive: -1.94%.

As to `CCCCNC(=O)CN1CCN(c2ncc(NC(=O)c3ccc(Cl)cc3)cc2C(=O)O)CC1`, the outcome was inactive.

For `COc1cc(NC(=O)C2CCN(c3nc4ccccc4nc3C(F)(F)F)CC2)cc(OC)c1`, the result was inactive.

As for `COCCCNc1nc(NCc2ccc(C)cc2)c2cnn(C)c2n1`, the “activity change, negative = inhibition” value is inactive: 4.46%.

As to `COc1cccc2c1cc1c(=O)n(CC(=O)N3CCC(C)CC3)nc(C)n12`, the “activity change, negative = inhibition” value was inactive: -18.1%.

With `COCCc1nn2c(=O)cc(COC(=O)c3ccc(Br)cc3)nc2s1`, the “activity change, negative = inhibition” value was inactive: 1.78%.

Take `CCC(C)NC(=O)c1sc2nc3n(c(=O)c2c1C)CCC3` (stereo not drawn): the compound was classed as inactive.

For the compound `Cc1cccc(N2CCN(C(=O)c3cc4ccc5cccnc5c4[nH]3)CC2C)c1` (stereo not drawn), the compound was classed as inactive.

Regarding `CN1CCN(C(CNC(=O)c2c(F)cccc2F)c2ccc3c(c2)OCO3)CC1` (stereo not drawn), the “activity change, negative = inhibition” value is inactive: -6.71%.

Regarding `O=c1c2ccccc2n(Cc2cccc(Cl)c2)c(=O)n1Cc1ccccc1`, the “activity change, negative = inhibition” value was inactive: 14%.

In the case of `CCN(C(=O)Cn1ncc2c(=O)oc3ccccc3c21)c1ccccc1F`, the “activity change, negative = inhibition” value is inactive: 4%.

As to `CCC(=O)Nc1sc2c(c1C(=O)Nc1ccc(Br)cc1)CCCCC2`, the “activity change, negative = inhibition” value was inactive: -7.26%.

Consider `COc1ccccc1-c1nc(SCC(=O)c2ccc(Cl)cc2)n[nH]1`, for which the “activity change, negative = inhibition” value was inactive: 1.88%.

Take `O=c1oc2ccccc2cc1-c1nc(-c2cccs2)no1`: the “activity change, negative = inhibition” value was inactive: 10.4%.

For `CCS(=O)(=O)N1CCc2cc(C(=O)NCc3ccccc3Cl)ccc21`, the “activity change, negative = inhibition” value was inactive: 4.46%.

On to `Cc1ccc2oc(=O)c3cc(C(=O)NCCc4ccc(Cl)cc4)sc3c2c1`, for which the call was inactive.

Take `COc1cc(OC)cc(C(=O)NCCc2csc(-c3ccc(C(F)(F)F)cc3)n2)c1`: the “activity change, negative = inhibition” value was inactive: -3.53%.

Turning to `COc1ccccc1NC(=O)c1sc2nc(C)c(C(=O)Nc3ccc(C)cc3C)c(-c3ccccc3Cl)c2c1N`, the “activity change, negative = inhibition” value was inactive: 5.86%.

For `Cc1ccc(NC(=O)CCN2C(=O)c3ccccc3Sc3ncccc32)c(Cl)c1`, the compound was called inactive.

Turning to `O=C(c1cc2ccc3cccnc3c2[nH]1)N1CCN(c2cccc(Cl)c2)CC1`, the “activity change, negative = inhibition” value was inactive: -8.69%.

Turning to `CCc1ccccc1NC(=O)NC(CC)Cn1nnc2ccccc2c1=O` (stereo not drawn), the result was inactive.

With `CCOc1ccccc1NS(=O)(=O)c1cc(-c2cnc(C3CC3)o2)ccc1C`, the call was inactive.

With `Cc1ccc(-n2nc3c(=O)n(C(C)C(=O)NCc4ccccc4C)nc(C)c3c2C)cc1` (stereo not drawn), the compound was called inactive.

`CCCCc1nn2c(=O)cc(COC(=O)c3ccccc3C)nc2s1`: the compound was called inactive.

Consider `COc1ccc(NC(=O)C(C(C)C)N2Cc3ccccc3C2=O)cc1` (stereo not drawn), for which the “activity change, negative = inhibition” value was inactive: -10.7%.
